The text below walks through data of PubChem BioAssay AID1346428 (National Center for Advancing Translational Sciences (NCATS), 2018).

The structures appear in SMILES notation. Where “and” joins values, the source holds several entries; their conditions need not be identical. Equal values may be shown once. Screen size: about 48,000 compounds; about 1,200 (2.5%) were called active. Inconclusive results (about 2%) are left out.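 How the source made its calls: active means activation of at least 60% and not above a set upper limit (about 1 call in 100 departs from these limits); inconclusive means activation of 40% to 60%, or above that upper limit; inactive means activation under 40%.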 The list shows a part of the results.

UniProt O75388, sequence (O75388 whole entry, looked up): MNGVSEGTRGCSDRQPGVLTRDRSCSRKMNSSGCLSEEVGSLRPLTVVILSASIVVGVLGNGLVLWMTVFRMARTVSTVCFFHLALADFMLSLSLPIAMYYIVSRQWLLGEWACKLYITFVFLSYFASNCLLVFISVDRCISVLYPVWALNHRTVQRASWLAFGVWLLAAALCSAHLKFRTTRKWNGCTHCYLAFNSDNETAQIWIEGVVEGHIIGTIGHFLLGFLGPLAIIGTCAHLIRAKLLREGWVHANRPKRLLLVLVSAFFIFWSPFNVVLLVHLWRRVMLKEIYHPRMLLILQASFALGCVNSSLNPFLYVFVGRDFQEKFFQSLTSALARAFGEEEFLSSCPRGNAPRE

For the assay, the target named is Probable G-protein coupled receptor 32 (Homo sapiens) (UniProt O75388). The experiment in a line: qHTS for Agonists of Human Resolvin D1 Receptor DRV1. Further: 0% is about no effect. Particulars: CHO-K1 GPR32 beta-arrestin PathHunter luminescence, 90 min; at 76.9 µM; active compounds read high; zero percent set by DMSO-only wells. The procedure, abridged:
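Readings come from a cell-based beta-arrestin complementation format: CHO-K1 GPR32 stable cells (2,500/well) treated 90 min with compounds, then beta-Gal substrate added for 1 h before chemiluminescence imaging.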
As for `Cc1ccc(-n2nc3c(N4CCCC(C(=O)NCCc5ccccc5)C4)nnc(C)c3c2C)cc1` (centres undefined), the activation was inactive: -7.25%.

As to `Cc1ccc(CNC(=O)Cn2ccn(-c3ccc(C)c(C)c3)c(=O)c2=O)cc1`, the activation is inactive: -1.35%. Turning to `CN(C)c1ccc(CNC(=O)CN(C)S(=O)(=O)c2ccc3c(c2)c(=O)n(C)c(=O)n3C)cc1`, the activation is inactive: -3.52%. The figure for `Cc1ccc(CNC(=O)CN(c2ccc(Cl)cc2Cl)S(=O)(=O)c2ccccc2)cc1` is inactive: -12.1%. The figure for `C1COC(NC(C2CC2)C2CC2)=N1` is inactive: -2.25% and inactive: -11%; for `Cc1ccc(CCNC(=O)Cn2c(-c3cccs3)cc3cc(F)ccc32)cc1` it is inactive: 32.8%. Under `CCc1cccc2sc(N3CCN(C(=O)c4cc5ccccc5cc4OC)CC3)nc12` stands inactive: -17.9%; under `COc1cccc(C(=O)Nc2c(C(=O)NC(C)(C)C)oc3ccccc23)c1`, inactive: -16.9%; under `CCc1cccc(NC(=O)Cn2c(=O)n(CCc3ccc(OC)c(OC)c3)c(=O)c3ccccc32)c1`, inactive: -2.52%. As to `CCOC(=O)Cn1cccc1-c1nc(-c2ccc(OC)cc2)c(-c2ccc(OC)cc2)s1`, the activation was inactive: 23.1%. The figure for `COc1ccc(CC(=O)NCc2ccc3c(c2)CCN3C(=O)c2ccc(C)cc2)cc1OC` is inactive: -24.6%.

Turning to `O=C(Cn1ncc2c(=O)oc3ccccc3c21)NCc1ccccc1Cl`, the activation was inactive: 4.21%. The figure for `O=C(Cn1ncc2c3ccccc3n(Cc3ccccc3F)c2c1=O)NCCc1ccc(Cl)cc1` is inactive: -9.89%; for `CCOC(=O)c1c(C)[nH]c(C)c1S(=O)(=O)N1CCCC(C(=O)Nc2ccc(OC)c(Cl)c2)C1` (centres undefined) it is inactive: -2.49%. For `COc1cccc(CNC(=O)CSc2c3c(nc4ccc(Cl)cc24)CCCC3)c1OC`, the activation is inactive: -20.9%.

Take `O=C(Cn1cnc(S(=O)(=O)N2CCCC2)c1)Nc1ccc(OC(F)(F)F)cc1`: the activation is inactive: 14.9%. The figure for `CCc1ccc(NC(=O)c2cc3sc(Cl)cc3n2C)cc1` is inactive: 42.1%. Under `CC1=C(C(=O)Nc2ccc(C)cc2C)C(c2ccc(Cl)cc2)n2nc(C(=O)OC(C)C)nc2N1` (centres undefined) stands inactive: -0.364%; under `COc1ccc(OC)c(NC(=O)Cn2cnc3c(oc4ccccc43)c2=O)c1`, inactive: -19%; under `COc1ccc(CN2COc3ccc4c(-c5ccccc5)cc(=O)oc4c3C2)cc1`, inactive: -15.2%.

For `Cc1cccc(N2CCN(C(=O)C3CCN(S(=O)(=O)c4cccs4)CC3)CC2)c1C`, the activation was inactive: -11.7%. Under `Cc1ccccc1Nc1nnc(-c2ccc(C)c(S(=O)(=O)N3CCOCC3)c2)c2ccccc12` stands inactive: 0.024%; under `O=S(=O)(c1ccc2[nH]c3c(c2c1)CCCCC3)N1CCN(c2ccccc2)CC1`, inactive: 9.06%; under `COc1cccc(CNC(=O)c2cc(-c3cccc(OC)c3)n[nH]2)c1`, inactive: -8.46%. The figure for `O=C(CCn1cnc2ccccc2c1=O)NCc1ccccc1` is inactive: -9.12%; for `Cc1ccc(N2CCN(C(=O)CCc3c(C)nc4c(c3C)c(=O)n(C)c(=O)n4C)CC2)c(C)c1` it is inactive: 3.52%. Under `CCOc1ccc(NS(=O)(=O)c2ccc(N)cc2)nn1` stands inactive: -7.53%; under `CC(=O)C1=C(c2ccc(Cl)c(Cl)c2)N(C(C)=O)n2c(C)nnc2S1`, inactive: -48%. Consider `COc1cc(OC)c(N(C)C(=O)c2nn(C)c3c2CSc2ccccc2-3)cc1Cl`, for which the activation was inactive: -11.2%. The figure for `CN1C(=O)Cc2cc(S(=O)(=O)CCC(=O)Nc3ccccc3)ccc21` is inactive: -13%; for `CCN(CC)CCCNC(=O)Cn1nc(N2CCN(c3ccccc3OC)CC2)ccc1=O` it is inactive: -0.716%. The figure for `Cc1cccc(C)c1NC(=O)c1oc2c(c1C)-c1nn(Cc3ccccc3)cc1CC2` is inactive: -10.3%; for `CCCSCCCNC(=O)CN1C(=O)COc2ccc(S(=O)(=O)N3CCC(C)CC3)cc21` it is inactive: -23.6%; for `CCc1ccc(S(=O)(=O)Nc2ccc(-c3ccc(N4CCCCCC4)nn3)cc2)cc1` it is inactive: 13.8%.

As to `Cn1c(=O)[nH]c2ncn(C)c2c1=O`, the activation is inactive: 3.72%. The figure for `Cc1nc2c(C(=O)N(C)Cc3ccccc3)c[nH]n2c(=O)c1Cc1ccc(Cl)cc1` is inactive: -15.2%; for `Cc1ccc(Cl)cc1N1CCN(C(=O)c2ccc3c(c2)N(Cc2ccccc2F)C(=O)c2ccccc2S3(=O)=O)CC1` it is inactive: 7.91%. Regarding `O=C(NCC(c1ccccc1)c1ccccc1)c1nn(-c2ccccc2Cl)nc1CO`, the activation is inactive: -21.8%. For `CCOc1ccccc1NC(=O)c1sc(-n2nc(C)c(CCC(C)C)c2C)nc1C`, the activation is inactive: -7.09%. In the case of `COc1ccc(Cl)cc1NC(=O)CN(C)S(=O)(=O)c1ccc(Br)s1`, the activation was inactive: -14.9%.

Consider `CCCCOc1ccc(S(=O)(=O)N2CCN(c3ccccc3OCC)CC2)cc1`, for which the activation is inactive: -4.1%.

Consider `Cc1cc2c(c3oc(=O)c4ccccc4c13)CN(Cc1ccc(F)cc1)CO2`, for which the activation is inactive: -18%.

In the case of `COCCCNC(=O)CCC(=O)N1Cc2ccccc2Oc2ncccc21`, the activation is inactive: 2.88%. The figure for `Cc1cc(C)c2oc(-c3cccc(NC(=O)c4ccco4)c3)nc2c1` is inactive: 2.29%.

For the compound `CCC1CCCCN1CCCNC(=O)CN1C(=O)CSc2ccc(S(=O)(=O)N3CCC(C)CC3)cc21` (centres undefined), the activation was inactive: -28.7%. The figure for `C#CCN[C@@H]1CCc2ccccc21` is inactive: -15.4%; for `O=C(Nc1cccc(Cl)c1)Nc1ccccc1OCc1cc(=O)n2ccccc2n1` it is inactive: -16.8%. For `COc1ccccc1N1CCN(C(=O)c2sc3nc4n(c(=O)c3c2C)CCC4)CC1`, the activation is inactive: 0.387%. Under `CCCCN(CC)CCNC(=O)c1cn(CCOC)c(=O)c2c1c1ccccc1n2C` stands inactive: -8.88%; under `CCC(=O)N1CCc2cc(S(=O)(=O)CCC(=O)Nc3ccc(Cl)c(C(F)(F)F)c3)ccc21`, active: 88.1%. Consider `CCOc1ccc(C(=O)c2cn(Cc3ccccc3OC)c3cc4c(cc3c2=O)OCCO4)cc1`, for which the activation is inactive: 2.06%.

Take `Cc1ccc(NC(=O)Cn2c(=O)oc3ccccc32)cc1Cl`: the activation was inactive: 8.98%. The figure for `COc1ccccc1CN1COc2ccc3c(C)cc(=O)oc3c2C1` is inactive: -34.4%; for `O=C(NC1CC(=O)N(c2cccc(F)c2)C1)c1ccc(S(=O)(=O)N2CCOCC2)cc1` (centres undefined) it is inactive: 6.74%. For the compound `CCOC(=O)c1ccc(NC(=O)CSc2ccc(-c3sc(C)nc3C)nn2)cc1`, the activation is inactive: -12.5%. The figure for `CCOC(=O)c1ccc(NC(=O)c2cn(-c3ccccc3)nc2-c2ccc(Br)cc2)cc1` is inactive: 21.5%. In the case of `COc1ccc(C(=O)c2oc3ccccc3c2NC(=O)c2ccc(F)cc2)cc1`, the activation is inactive: -3.99%. The figure for `O=C(c1cn(CCOc2ccccc2F)c2ccccc12)C1CCCCC1` is inactive: -11.6%; for `COc1ccc(Cn2ccc3nc(C)c(C(=O)N4CCN(c5ccccc5)CC4)cc3c2=O)cc1` it is inactive: -6.18%; for `CN/C(=C\[N+](=O)[O-])NCCSCc1ccc(CN(C)C)o1` it is inactive: 11.9% and inactive: -2.51%. `COc1ccc(NC(=O)CSc2oc(-c3cccs3)nc2S(=O)(=O)c2ccc(Br)cc2)c(OC)c1`: the activation is inactive: 8.09%.

In the case of `CCc1nonc1NC(=O)c1oc2cc(C)c(Cl)cc2c1C`, the activation is inactive: -7.54%. With `Cc1cccc(Cn2cc(C(=O)c3ccccc3)c(=O)c3cc4c(cc32)OCO4)c1`, the activation was inactive: -3.07%. In the case of `Cc1ccc(Nc2sc(C(=O)c3ccccc3)c(N)c2C(=O)NC(C)C)cc1`, the activation is inactive: -7.09%.

Regarding `Cc1nc2ccn(Cc3cccs3)c(=O)c2cc1C(=O)NCc1ccccc1`, the activation was inactive: -18.6%. For the compound `CCOc1ccc(NC(=O)C2CCN(S(=O)(=O)c3cc(-c4noc(C)n4)ccc3C)CC2)cc1`, the activation was inactive: -7.2%. `CCOC(=O)c1cc(-c2ccccc2)n(CC(=O)Nc2ccc(OC)cc2OC)c1C`: the activation was inactive: -15.5%.

In the case of `CC(C)CC(=O)NCc1nc2cccnc2n1Cc1ccccc1`, the activation is inactive: 0.0356%. Turning to `CSc1cccc(-c2nnc(NC(=O)c3ccc4c(c3)OCCO4)o2)c1`, the activation is inactive: -6.85%.

For the compound `COc1ccc(-c2ccc(NS(=O)(=O)c3cccc(Cl)c3)cc2)nn1`, the activation is inactive: 26.3%. With `Cc1ccccc1CNC(=O)c1ccc(Cn2c(SCc3cccc(F)c3)nc3cccnc32)cc1`, the activation was inactive: -19.3%. The figure for `CCOC(=O)c1nc(Nc2ccc(C(=O)OCC(C)C)cc2)c2ccccc2n1` is inactive: 32.4%; for `O=C(CCc1cn(Cc2ccccc2F)c2ccccc12)NCc1ccc(Cl)cc1` it is inactive: -21.5%; for `COc1ccc(N2CCN(C(=O)c3cc(S(=O)(=O)N4CCCCCC4)cn3C)CC2)cc1` it is inactive: -17.6%. Under `Cc1ccc2oc(C(=O)N(Cc3cccc(F)c3)C3CCS(=O)(=O)C3)c(C)c2c1` (centres undefined) stands inactive: -37.8%; under `COc1cccc(Cn2c(=O)n(-c3ccc(C)c(F)c3)c(=O)c3sc4ccccc4c32)c1`, inactive: -10.9%. In the case of `COc1cccc(NC(=O)N2CCC(n3c(C)nc4cccnc43)CC2)c1`, the activation is inactive: 16.2%. Regarding `COc1ccc(-c2cc(=S)ss2)cc1`, the activation was inactive: -33.8%.

On to `O=C(NCc1ccccc1Cl)C1CCC(CNS(=O)(=O)c2ccc(Cl)cc2)CC1` (centres undefined), for which the activation is inactive: -16.6%. Under `COc1cccc(OC)c1C(=O)Nc1nnc(C)s1` stands inactive: -4.23%; under `COc1ccc(CNC(=O)C2CCN(Cc3nc(-c4ccc(OC)c(OC)c4)oc3C)CC2)cc1`, inactive: 27.7%. Consider `Cc1ccc(-c2cc(C(F)(F)F)n3nc(-c4ccc(Cl)cc4)cc3n2)cc1`, for which the activation is inactive: 3.39%.

Take `Cc1cc(C(C)(C)C)c(O)c(C(C)(C)C)c1`: the activation is inactive: -7.14%. The figure for `O=C(COC(=O)C(Cc1c[nH]c2ccccc12)NC(=O)c1ccc(Br)cc1)c1ccc(Cl)cc1` (centres undefined) is inactive: -24.8%.
